Data as given in paper PMC4336329 (PLoS ONE, 2015).
The whole screen tested about 310,000 compounds, of which about 14,000 (4.5%) showed an effect of 50% or more. Effects have a minus sign here. This is one part of the list. Where a SMILES comes first, the peptide text is derived from it. The star is where a group is joined. OBn = c1ccc(CO*)cc1

Biological target: human ether-à-go-go-related gene (hERG) potassium channel (human, UniProt Q12809)
Assay: primary screen, population patch clamp on CHO cells stably expressing hERG
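Further: peak tail current of the secondary pulse compared with the same well before compound.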

Sequence of human ether-à-go-go-related gene (hERG) potassium channel (Q12809 whole entry, looked up): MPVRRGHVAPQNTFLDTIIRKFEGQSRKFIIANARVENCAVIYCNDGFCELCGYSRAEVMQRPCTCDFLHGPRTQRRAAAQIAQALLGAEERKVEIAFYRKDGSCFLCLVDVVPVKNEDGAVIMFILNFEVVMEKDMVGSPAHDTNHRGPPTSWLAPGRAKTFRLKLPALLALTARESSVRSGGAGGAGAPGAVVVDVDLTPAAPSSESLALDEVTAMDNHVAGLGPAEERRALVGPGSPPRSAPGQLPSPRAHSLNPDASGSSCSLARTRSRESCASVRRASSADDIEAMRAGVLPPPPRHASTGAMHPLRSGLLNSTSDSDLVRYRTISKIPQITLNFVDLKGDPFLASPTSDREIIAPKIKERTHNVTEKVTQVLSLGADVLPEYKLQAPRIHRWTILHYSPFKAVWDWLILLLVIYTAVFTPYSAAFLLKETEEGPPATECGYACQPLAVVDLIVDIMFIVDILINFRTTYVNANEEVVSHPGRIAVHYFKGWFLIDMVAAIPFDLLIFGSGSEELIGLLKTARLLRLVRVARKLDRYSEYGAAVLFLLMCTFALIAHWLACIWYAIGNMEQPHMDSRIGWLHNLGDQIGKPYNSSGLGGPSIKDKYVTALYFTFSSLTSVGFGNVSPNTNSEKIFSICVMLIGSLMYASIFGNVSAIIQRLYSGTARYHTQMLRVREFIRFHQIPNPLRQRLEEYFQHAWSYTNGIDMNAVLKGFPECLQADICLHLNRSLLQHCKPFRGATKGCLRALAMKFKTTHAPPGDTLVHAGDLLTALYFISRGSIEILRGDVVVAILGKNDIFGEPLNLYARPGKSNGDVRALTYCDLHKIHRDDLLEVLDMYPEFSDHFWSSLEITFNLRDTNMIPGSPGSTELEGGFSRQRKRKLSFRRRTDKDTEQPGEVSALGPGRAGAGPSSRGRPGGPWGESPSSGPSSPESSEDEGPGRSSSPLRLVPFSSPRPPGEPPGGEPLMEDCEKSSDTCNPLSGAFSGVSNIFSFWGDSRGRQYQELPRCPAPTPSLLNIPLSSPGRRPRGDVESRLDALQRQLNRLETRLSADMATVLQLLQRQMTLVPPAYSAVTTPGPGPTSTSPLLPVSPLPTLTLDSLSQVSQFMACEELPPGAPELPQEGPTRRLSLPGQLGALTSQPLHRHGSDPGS

Point of comparison: `O=C(CN(CC1CCCO1)C(=O)CNS(=O)(=O)c1ccc(F)cc1)NC1CCCC1` (stereo not drawn), “hERG current change (%, negative = inhibition) at 10uM” value 4%. Against it:
- C=CCNc1nc(Nc2ccc([N+](=O)[O-])cc2)nc(OCC)n1 — higher, 14.1%
- CC(=O)c1cc(C(=O)N2CCc3c([nH]c4ccccc34)C2CC(C)C)[nH]n1 (stereo not drawn) — lower, -19.8%
- COc1ccc(CSc2nncn2N)cc1[N+](=O)[O-] — higher, 7.17%
- O=C1N2CCSC2=NC1(NS(=O)(=O)c1ccccc1)C(F)(F)F (stereo not drawn) — higher, 8.63%
- Cc1c(Br)c([N+](=O)[O-])nn1C(C)C(=O)Nc1c(C)n(C)n(-c2ccccc2)c1=O (stereo not drawn) — lower, -12.8%
- O=C(Nc1cccc(-c2csc(-c3ccccc3)n2)c1)c1cccs1 — higher, 6.76%
- COCCNC(=O)c1sc2ncn(CC(=O)Nc3ccc(C)c(Cl)c3)c(=O)c2c1C — higher, 10.5%
- CCCOc1ccc(C(=O)NCC(c2ccco2)N(C)C)cc1OC (stereo not drawn) — lower, -8.42%
- COc1ccccc1NC(=O)C1CCN(C(=O)c2ccco2)CC1 — higher, 11.3%
- Cc1ccccc1Cn1nc(C)c(NC(=O)c2noc3c2CC(C(C)(C)C)CC3)c1C (stereo not drawn) — higher, 6.8%
- C#CCOCCOCCOCCNc1nc(N2CCN(C(=O)C([C@@H](C)CC)n3cc(C(N)CC(C)C)nn3)CC2)nc(N2CCN(C(=O)[C@H](CCC(=O)O)n3cc(C(N)[C@H](C)CC)nn3)CC2)n1.Cl (stereo partly drawn) — higher, 18.5%
- Cc1cc2ncn(CCOc3ccccc3C#N)c2cc1C — lower, -22.6%
- CCC(C)C(NC(=O)C(N)CC(C)C)C(=O)NC(CCC(=O)OCc1ccccc1)C(N)=O.Cl (stereo not drawn) (H-Leu-Ile-Glu(OBn)-NH2; configuration not given here) — lower, 0.556%
- Cc1cc([N+](=O)[O-])ccc1NCc1ccc2ccccc2c1 — higher, 9.83%
- COc1ccc(Cl)cc1N1CC(C(=O)Nc2nccs2)CC1=O (stereo not drawn) — lower, -6.03%
- Cc1[nH]n(-c2ccccc2)c(=O)c1S(=O)(=O)c1ccccc1 — lower, -19.2%
- CCc1nc2ccccc2n1CC(=O)OCC(=O)N(CC(C)C)c1c(N)n(Cc2ccccc2)c(=O)[nH]c1=O — lower, 0.273%
- COc1ccc(C(CNC(=O)c2ccc(S(=O)(=O)Nc3ccccc3F)cc2)N(C)C)cc1 (stereo not drawn) — lower, 3.72%
- Cc1ccc2c(COC(=O)c3c(C)noc3C)cc(=O)oc2c1 — lower, 1.08%
- COc1ccc(-c2nsc(SCC(=O)NCc3ccc4c(c3)OCO4)n2)cc1 — higher, 17.4%
- O=C(OCc1cc(=O)n2ccsc2n1)C1(c2ccc(Cl)cc2)CC1 — lower, -43.3%
- O=C(c1ccc(OC2CCN(Cc3ccccn3)CC2)cc1)N1CCCCO1 — higher, 5.45%
- CC(C)[C@H](NS(=O)(=O)/C=C/c1ccccc1)C(=O)OCC(=O)NC(N)=O — higher, 24.2%
- CCn1c(C)[n+](CCOCC[n+]2c(C)n(CC)c3cc(Cl)c(Cl)cc32)c2cc(Cl)c(Cl)cc21.[I-] — higher, 6.82%
- O=C(NCCCn1ccnc1)c1ccncc1 — lower, -6.4%
- O=C(Cc1ccccc1[N+](=O)[O-])NC1CCN(Cc2ccccc2)CC1 — lower, -1.68%
- CCOc1ccc(N(C(=O)C2CCCO2)C2C=CS(=O)(=O)C2)cc1 (stereo not drawn) — higher, 13.3%
- Cc1ccc(-c2nc3ccccc3c(=O)n2-c2ccc(Br)cn2)cc1 — lower, -18.7%
- Cc1ccc(-n2cc(CNCCCN3CCCC3=O)c(-c3ccc(F)cc3)n2)cc1 — lower, -72.1%
- Cc1ccc(NC(=O)CCn2cnc3ccccc3c2=O)cc1Cl — lower, -0.942%
- O=C(NCc1nc(-c2ccc(C(F)(F)F)cc2)no1)Nc1ccc(F)cc1F — higher, 11.5%
- CCCCCn1c(C(Cc2ccccc2)NC(C)=O)nc2ccccc21 (stereo not drawn) — lower, -15.5%
- COc1ccc(/C=N/NS(=O)(=O)c2ccc(C)cc2)cc1OC(=O)c1ccc(C)cc1 — higher, 18.2%
- CC(Sc1nnc(-c2ccccc2F)n1C)C(=O)NC1CCCCC1 (stereo not drawn) — lower, -1.88%
- Cc1cc2c(cc1S(=O)(=O)N1CCCCC1)OCC(=O)N2 — lower, 1.14%
- CCSP1(=S)N=C(N2CCOCC2)C(C#N)=C2CCCN21 (stereo not drawn) — lower, -8.29%
- CCOCCCNC(=O)c1cc2c(=O)n3cccc(C)c3nc2s1 — higher, 12.6%
- CC(=O)Nc1ccc(S(=O)(=O)Oc2cccc(N3C(=O)C4CCCCC4C3=O)c2)cc1 (stereo not drawn) — lower, -15.3%
- CC(=O)Nc1cccc(NC(=O)CSc2nn3c(=O)c(C)nnc3s2)c1 — higher, 12.4%
- Cc1ccc(OCC(=O)n2nc(C)cc2C)c(C)c1 — higher, 10.2%
- Cc1nn(C)c(C)c1S(=O)(=O)N(CC(=O)NC1CCCCCC1)c1ccc(C(C)C)cc1 — lower, -10.4%
- Cc1ccn2cc(CNC(=O)c3cccs3)nc2c1 — higher, 7.66%
- O=C(O)c1ccc(Cl)c(S(=O)(=O)Nc2ccccc2Cc2ccccc2)c1 — higher, 16.4%
- CC(O)C(NS(=O)(=O)c1ccc(Cl)cc1)C(=O)OCc1nnc(-c2ccccc2)o1 (stereo not drawn) — lower, -12.3%
- Cc1nnc2n1NC(c1ccc(Cl)cc1)C(C(=O)N(C)C1CCCCC1)S2 (stereo not drawn) — lower, -23.6%
- N=c1c2c3c(sc2ncn1CCCO)CCCC3 — lower, -19.5%
- Cc1nnc(NC(=O)C23CC4CC(C)(CC(C)(C4)C2)C3)s1 — higher, 23.4%
- c1ccc(CN2C3=NCCN3c3ccccc32)cc1 — lower, -39.5%
- Cc1cc(C)cc(NS(=O)(=O)c2ccc3oc(=O)ccc3c2)c1 — lower, -48.2%
- COC(=O)C1CSC(C(=O)OC)N1C(=O)CN1CCN(c2ccccc2)CC1 (stereo not drawn) — higher, 13.2%
- COc1ccc(/C=N/N=C2/NC(=O)C(CC(=O)NC(C)C)S2)cc1 (stereo not drawn) — higher, 7.76%
- Cc1cccc(NS(=O)(=O)c2ccc3c(c2)CCN3C(=O)CCC(=O)O)c1 — higher, 23.1%
- CCO.CN1CCC2(CC1)C1CN(C)CC=C1C(C#N)=C(N)C2(C#N)C#N.O (stereo not drawn) — higher, 14.6%
- O=C(Cc1ccccc1)NCC(=O)OCc1ccc([N+](=O)[O-])cc1 — lower, -36.6%
- Cc1occc1-c1nnc(SCC(=O)N2c3ccccc3CCc3ccccc32)n1C — lower, -5.31%
- O=C(O)c1cccc(NC(=O)c2cn(-c3ccccc3)nc2-c2ccncc2)c1 — higher, 14.4%
- COC(=O)c1c(NC(=O)CN2CCOCC2)sc2c1CCC(C)C2 (stereo not drawn) — lower, -0.109%
- COc1ccccc1C1C=C(c2ccc(C)cc2)Nc2nnnn21 (stereo not drawn) — higher, 6.16%
- CSCC[C@H](NS(=O)(=O)c1ccc(C)cc1)C(=O)N1CCC(C(=O)N[C@@H](C)C(=O)O)CC1 — higher, 6.89%
- CCOC(=O)Cn1c(CN2CCOCC2)nc2c1c(=O)[nH]c(=O)n2C — higher, 7.2%
- COc1ccccc1N1CCN(C(=O)c2cc3c(-c4ccc(Cl)cc4)nn(C)c3s2)CC1 — lower, 1.91%
- COc1ccc2c(c1)CCc1c(C(=O)NCC(C)C)noc1-2 — higher, 12.9%
- NC(=O)Nc1ccc(C(=O)OCC(=O)Nc2cccc(S(=O)(=O)NC3=NCCC3)c2)cc1 — higher, 18.4%
- O=C(NCCCN1CCCC1=O)c1cccc(S(=O)(=O)N2CCN(c3ccc(F)cc3)CC2)c1 — lower, -23.1%
- CC(C)c1ccc2nc(N)sc2c1 — lower, -8.55%
- O=C(c1n[nH]c2ccccc12)N1CCN(S(=O)(=O)c2ccc3ccccc3c2)CC1 — lower, -8.08%
- COc1ccc(CC(=O)Nc2cc(S(=O)(=O)N3CCCCC3)ccc2N2CCN(C)CC2)cc1 — lower, -54%
- Cc1ccc(N(C)S(=O)(=O)c2ccc(-c3ccc(=O)[nH]n3)s2)cc1C — higher, 13.7%
- COc1cccc(NC(=O)C(c2ccccc2)N2CCNC(=O)C2)c1 (stereo not drawn) — lower, -7.23%
- O=C1c2cc(S(=O)(=O)NCCCO)ccc2-c2ccc(S(=O)(=O)NCCCO)cc21 — lower, 0.851%
- O=C(CSc1nnc(Cc2cc(=O)[nH]c(=O)[nH]2)n1-c1ccccc1)NCC1CCCO1 (stereo not drawn) — lower, 1.69%
- CC(/C=C/c1ccc(O)cc1)=N/O — higher, 10.9%
- Oc1cccc(Nc2nc(N3CCOCC3)nc(N3CCOCC3)n2)c1 — higher, 8.76%
- CCOc1ccc2[nH]c(=O)c(CN(Cc3cccs3)Cc3nnnn3C(C)(C)C)cc2c1 — higher, 11.6%
- COc1ccc(C(=O)c2sc3nc(-c4ccccc4)ccc3c2N)cc1 — higher, 16.3%
- CCOc1cc(/C=N/NC(=O)c2nnn(-c3nonc3N)c2C)ccc1OCc1ccc(F)cc1 — higher, 13.4%
- CC(C)CC(=O)N1CCN(S(=O)(=O)c2ccc(C3CCCCC3)cc2)CC1 — lower, 0.76%
- CC(=O)CCC(=O)NCCc1ccccc1F — lower, -1.06%
- O=C(c1ccc2c3c(cccc13)CC2)N1CCOCC1 — higher, 10.5%
- CC(C)(C)C(=O)Nc1c2c(nn1-c1ccc(F)cc1)CSC2 — higher, 13.4%
- C=CCNC(=S)N1CCc2c([nH]c3ccccc23)C1C (stereo not drawn) — higher, 11.7%
- CCOc1ccc(OCC)c(S(=O)(=O)N2CCOCC2)c1 — higher, 10.4%
- CCCC/C(C)=C/[C@@H](NP(=O)(c1ccccc1)c1ccccc1)c1ccccc1 — lower, -2.64%
